# Measurements: PubChem BioAssay (NCATS)
# Some of the results follow. Shown are side measurements of this screen, not its main read-out; they come without a call. The list favours compounds with an active or inconclusive main result. Words in brackets tell the shape of the fitted curve; partial curves, single points and poor fits give uncertain potencies.
# Assay: qHTS Assay for Lipid Storage Modulators (AID 1519)
# Conditions: Drosophila S3 cells, BODIPY lipid droplet/cell ratio, laser cytometry, cells loaded with oleic acid
# In short: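 Cells seeded at 5,000 per well were treated with compounds over a concentration series and loaded with oleic acid (400 uM, as added). Lipid droplet fluorescence (488 nm excitation, 500-530 nm channel) was read by laser-scanning cytometry and normalized to 20 uM Triacsin C.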
# [1] = measured here: cell count channel max response
# [2] = measured here: cell number channel AC50
# [3] = measured here: lipid (BODIPY) channel AC50
# [4] = measured here: lipid channel max response
# Tags tell the direction and shape of the fitted curve.
SMILES,max response [1],AC50 [2],AC50 [3],max response [4]
N[C@@H](C(=O)O)c1ccc(C(=O)O)cc1,42.5%,"39.8 µM [rising, single point]","39.8 µM [rising, single point]",49.5%
COc1ccccc1CNc1cc(-c2ccoc2)ncn1,38.1%,"8.91 µM [rising, partial curve]","7.94 µM [rising, partial curve, poor fit]",44.8%
N#Cc1cccc(NC(=O)N2CCCC3(CCN(C(=O)c4cccc(F)c4)CC3)C2)c1,32.7%,"0.141 µM [rising, full curve, poor fit]","0.158 µM [rising, full curve, poor fit]",43.9%
O=S(=O)(c1cccc2cnccc12)N1CCNCC1,64%,"15.8 µM [rising, full curve]","22.4 µM [rising, partial curve, poor fit]",88.5%
CS(=O)(=O)Nc1ccc([N+](=O)[O-])cc1OC1CCCCC1,33.3%,"35.5 µM [rising, single point]","31.6 µM [rising, single point]",40.6%
Cn1cc(-c2nc3cnc(OCc4ccccc4)nc3n(CCC#N)c2=O)c2ccccc21,30.9%,"2.82 µM [rising, full curve]","2.82 µM [rising, full curve]",39.6%
CC(=O)NCCNc1ncnc2ccc(-c3ccccc3Cl)cc12,11.5%,"6.31 µM [rising, single point]","5.62 µM [rising, partial curve, poor fit]",12.4%
